{"source": "the antibiotic and cytotoxicity screens of Wong et al. (2023)", "note": "The other results are listed elsewhere or left out.", "data": [{"system": "HepG2", "assay": "cytotoxicity call (relative viability < 0.9)", "settings": "10 µM", "values": [{"smiles": "CN1C2CCC1CC(OC(=O)C(CO)c1ccccc1)C2", "note": "(stereo not drawn)", "cytotoxicity call": "inactive"}, {"smiles": "[N-]=[N+]=NCc1ccccc1C[C@@]1(C(=O)NCCN2CCOCC2)N=C(c2ccc(OCCCO)cc2)O[C@@H]1c1ccccc1N=[N+]=[N-]", "cytotoxicity call": "active"}, {"smiles": "C[C@H]1O[C@H](C[N+](C)(C)C)C[C@@H]1O", "cytotoxicity call": "inactive"}, {"smiles": "NC1N[C@H]2CCCC[C@@H]2N1", "cytotoxicity call": "inactive"}, {"smiles": "CC1(C)CCNC1=O", "cytotoxicity call": "inactive"}, {"smiles": "CCOC(=O)C1C(C=C(C)C)C1(C)C", "note": "(stereo not drawn)", "cytotoxicity call": "inactive"}, {"smiles": "CC(C)=CCC[C@]1(C)C=Cc2c(O)c3c(c(CC=C(C)C)c2O1)O[C@]12[C@H](C[C@@H]4C[C@H]1C(C)(C)O[C@]2(C/C=C(/C)C(=O)O)[C@@H]4O)C3=O", "cytotoxicity call": "inactive"}, {"smiles": "CO[C@@H]1C[C@@H](C[C@H]2CC[C@H](C)[C@H]([C@@H](C)C(=O)O)O2)O[C@]2(O[C@](C)([C@H]3CC[C@@](C)([C@H]4O[C@@H]([C@H]5O[C@@](O)(CO)[C@H](C)C[C@@H]5C)C[C@@H]4C)O3)C[C@H]2C)[C@@H]1C", "cytotoxicity call": "active"}, {"smiles": "CCCC(C)(COC(N)=O)COC(=O)NC(C)C", "note": "(stereo not drawn)", "cytotoxicity call": "inactive"}, {"smiles": "O=C(NC(=O)c1c(F)cccc1F)Nc1ccc(Cl)cc1", "cytotoxicity call": "inactive"}, {"smiles": "C=CCN=C=S", "cytotoxicity call": "active"}, {"smiles": "CN1C2CCC1CC(OC(=O)C(CO)c1ccccc1)C2.O=S(=O)(O)O", "note": "(stereo not drawn)", "cytotoxicity call": "inactive"}, {"smiles": "NCC(=O)Nc1ccc(Br)cc1C(=O)c1ccccc1", "cytotoxicity call": "inactive"}, {"smiles": "CC(=O)N[C@@H]1CCSC1=O", "cytotoxicity call": "inactive"}, {"smiles": "C[C@@H](N)Cc1ccc(O)cc1", "cytotoxicity call": "inactive"}, {"smiles": "Cc1c[nH]cn1", "cytotoxicity call": "inactive"}, {"smiles": "CN1C(=O)N(C)C2C1N(C)C(=O)N2C", "note": "(stereo not drawn)", "cytotoxicity call": "inactive"}, {"smiles": "Cc1ccc2n[nH]c(CN)c2c1", "cytotoxicity call": "inactive"}, {"smiles": "CCOCC(=O)N1C[C@H]2CNC[C@H]2C1", "cytotoxicity call": "inactive"}, {"smiles": "COc1ccc2[nH]cc(CCN)c2c1", "cytotoxicity call": "inactive"}, {"smiles": "OCCN1CC2(CCN(c3nccs3)C2)C1", "cytotoxicity call": "inactive"}, {"smiles": "Cc1ccc2cc3c(ccc4ccccc43)c3c2c1CC3", "cytotoxicity call": "active"}, {"smiles": "Cc1[nH]c2ccccc2c1CCN", "cytotoxicity call": "inactive"}, {"smiles": "C(=N/C12CN3CN(CN(C3)C1)C2)/c1cccnc1", "cytotoxicity call": "inactive"}, {"smiles": "N#Cc1c(Cl)c(Cl)c(Cl)c(C#N)c1Cl", "cytotoxicity call": "active"}, {"smiles": "CC(C)[C@@H](Br)C(=O)NC(N)=O", "cytotoxicity call": "inactive"}, {"smiles": "C[C@@H]1CN([C@H](C)CO)C(=O)CCCn2nncc2CO[C@@H]1CN(C)C(=O)Oc1cccc2ccccc12", "cytotoxicity call": "inactive"}, {"smiles": "CN1CCN(C(=O)CN=[N+]=[N-])CC1", "cytotoxicity call": "inactive"}, {"smiles": "CC(C)c1csc(CCN)n1", "cytotoxicity call": "inactive"}, {"smiles": "O=C(NCc1ccccn1)[C@]12CNC[C@H]1COC2", "cytotoxicity call": "inactive"}, {"smiles": "NC(Cc1ccc(N(CCCl)CCCl)cc1)C(=O)O", "note": "(stereo not drawn)", "cytotoxicity call": "inactive"}, {"smiles": "CC(=O)c1c(O)c(C)c(O)c(Cc2c(O)c3c(c(C(=O)/C=C/c4ccccc4)c2O)OC(C)(C)C=C3)c1O", "cytotoxicity call": "inactive"}, {"smiles": "CC(=O)c1c(O)cc(C)oc1=O", "cytotoxicity call": "inactive"}, {"smiles": "CC(C)C[C@@H](NC(=O)[C@H](Cc1ccccc1)NC(=O)CNC(=O)[C@@H](C)NC(=O)[C@@H](N)Cc1ccc(O)cc1)C(=O)O", "cytotoxicity call": "inactive"}, {"smiles": "CC(C)(C)CC(=O)N1C[C@H]2C[C@@H]1CN2", "cytotoxicity call": "inactive"}, {"smiles": "C=C(C)[C@H]1CN[C@H](C(=O)O)[C@@H]1CC(=O)O", "cytotoxicity call": "inactive"}, {"smiles": "COCCCNC(=O)C1[C@@H]2CC[C@H]1CNC2", "note": "(stereo partly drawn)", "cytotoxicity call": "inactive"}, {"smiles": "COc1ccc(C(=O)N2CCCC2=O)cc1", "cytotoxicity call": "inactive"}, {"smiles": "CC(C)(C)OC(=O)N1C[C@H]2C[C@@H]1CN2", "cytotoxicity call": "inactive"}]}, {"system": "S. aureus RN4220", "assay": "growth inhibition call (relative growth <= 0.2)", "settings": "50 µM", "values": [{"smiles": "CN1C2CCC1CC(OC(=O)C(CO)c1ccccc1)C2", "note": "(stereo not drawn)", "growth inhibition call": "inactive"}, {"smiles": "[N-]=[N+]=NCc1ccccc1C[C@@]1(C(=O)NCCN2CCOCC2)N=C(c2ccc(OCCCO)cc2)O[C@@H]1c1ccccc1N=[N+]=[N-]", "growth inhibition call": "inactive"}, {"smiles": "C[C@H]1O[C@H](C[N+](C)(C)C)C[C@@H]1O", "growth inhibition call": "inactive"}, {"smiles": "NC1N[C@H]2CCCC[C@@H]2N1", "growth inhibition call": "inactive"}, {"smiles": "CC1(C)CCNC1=O", "growth inhibition call": "inactive"}, {"smiles": "CCOC(=O)C1C(C=C(C)C)C1(C)C", "note": "(stereo not drawn)", "growth inhibition call": "inactive"}, {"smiles": "CC(C)=CCC[C@]1(C)C=Cc2c(O)c3c(c(CC=C(C)C)c2O1)O[C@]12[C@H](C[C@@H]4C[C@H]1C(C)(C)O[C@]2(C/C=C(/C)C(=O)O)[C@@H]4O)C3=O", "growth inhibition call": "inactive"}, {"smiles": "CO[C@@H]1C[C@@H](C[C@H]2CC[C@H](C)[C@H]([C@@H](C)C(=O)O)O2)O[C@]2(O[C@](C)([C@H]3CC[C@@](C)([C@H]4O[C@@H]([C@H]5O[C@@](O)(CO)[C@H](C)C[C@@H]5C)C[C@@H]4C)O3)C[C@H]2C)[C@@H]1C", "growth inhibition call": "active"}, {"smiles": "CCCC(C)(COC(N)=O)COC(=O)NC(C)C", "note": "(stereo not drawn)", "growth inhibition call": "inactive"}, {"smiles": "O=C(NC(=O)c1c(F)cccc1F)Nc1ccc(Cl)cc1", "growth inhibition call": "inactive"}, {"smiles": "C=CCN=C=S", "growth inhibition call": "inactive"}, {"smiles": "CN1C2CCC1CC(OC(=O)C(CO)c1ccccc1)C2.O=S(=O)(O)O", "note": "(stereo not drawn)", "growth inhibition call": "inactive"}, {"smiles": "NCC(=O)Nc1ccc(Br)cc1C(=O)c1ccccc1", "growth inhibition call": "inactive"}, {"smiles": "CC(=O)N[C@@H]1CCSC1=O", "growth inhibition call": "inactive"}, {"smiles": "C[C@@H](N)Cc1ccc(O)cc1", "growth inhibition call": "inactive"}, {"smiles": "Cc1c[nH]cn1", "growth inhibition call": "inactive"}, {"smiles": "CN1C(=O)N(C)C2C1N(C)C(=O)N2C", "note": "(stereo not drawn)", "growth inhibition call": "inactive"}, {"smiles": "Cc1ccc2n[nH]c(CN)c2c1", "growth inhibition call": "inactive"}, {"smiles": "CCOCC(=O)N1C[C@H]2CNC[C@H]2C1", "growth inhibition call": "inactive"}, {"smiles": "COc1ccc2[nH]cc(CCN)c2c1", "growth inhibition call": "inactive"}, {"smiles": "OCCN1CC2(CCN(c3nccs3)C2)C1", "growth inhibition call": "inactive"}, {"smiles": "Cc1ccc2cc3c(ccc4ccccc43)c3c2c1CC3", "growth inhibition call": "inactive"}, {"smiles": "Cc1[nH]c2ccccc2c1CCN", "growth inhibition call": "inactive"}, {"smiles": "C(=N/C12CN3CN(CN(C3)C1)C2)/c1cccnc1", "growth inhibition call": "inactive"}, {"smiles": "N#Cc1c(Cl)c(Cl)c(Cl)c(C#N)c1Cl", "growth inhibition call": "inactive"}, {"smiles": "CC(C)[C@@H](Br)C(=O)NC(N)=O", "growth inhibition call": "inactive"}, {"smiles": "C[C@@H]1CN([C@H](C)CO)C(=O)CCCn2nncc2CO[C@@H]1CN(C)C(=O)Oc1cccc2ccccc12", "growth inhibition call": "inactive"}, {"smiles": "CN1CCN(C(=O)CN=[N+]=[N-])CC1", "growth inhibition call": "inactive"}, {"smiles": "CC(C)c1csc(CCN)n1", "growth inhibition call": "inactive"}, {"smiles": "O=C(NCc1ccccn1)[C@]12CNC[C@H]1COC2", "growth inhibition call": "inactive"}, {"smiles": "NC(Cc1ccc(N(CCCl)CCCl)cc1)C(=O)O", "note": "(stereo not drawn)", "growth inhibition call": "inactive"}, {"smiles": "CC(=O)c1c(O)c(C)c(O)c(Cc2c(O)c3c(c(C(=O)/C=C/c4ccccc4)c2O)OC(C)(C)C=C3)c1O", "growth inhibition call": "inactive"}, {"smiles": "CC(=O)c1c(O)cc(C)oc1=O", "growth inhibition call": "inactive"}, {"smiles": "CC(C)C[C@@H](NC(=O)[C@H](Cc1ccccc1)NC(=O)CNC(=O)[C@@H](C)NC(=O)[C@@H](N)Cc1ccc(O)cc1)C(=O)O", "growth inhibition call": "inactive"}, {"smiles": "CC(C)(C)CC(=O)N1C[C@H]2C[C@@H]1CN2", "growth inhibition call": "inactive"}, {"smiles": "C=C(C)[C@H]1CN[C@H](C(=O)O)[C@@H]1CC(=O)O", "growth inhibition call": "inactive"}, {"smiles": "COCCCNC(=O)C1[C@@H]2CC[C@H]1CNC2", "note": "(stereo partly drawn)", "growth inhibition call": "inactive"}, {"smiles": "COc1ccc(C(=O)N2CCCC2=O)cc1", "growth inhibition call": "inactive"}, {"smiles": "CC(C)(C)OC(=O)N1C[C@H]2C[C@@H]1CN2", "growth inhibition call": "inactive"}]}]}
